From PubChem BioAssay AID1508623 (National Center for Advancing Translational Sciences (NCATS), 2021)
Among all 48,000 compounds or so, about 450 (0.94%) were called active. Roughly 19% stayed inconclusive and do not appear here. The call rests on the fitted dose curve; in most records, active means well fitted inhibition curve with a large enough effect; inconclusive means small, poorly fitted or top-dose-only effect; inactive means no such curve, though single readings can be large or run the other way. The list shows a part of the results.

Experiment: Primary qHTS for Identification of Small Molecule Inhibitors of Huntingtin Promoter Activity; further: nearly all actives have a fitted effect of over 50% in size
Conditions: HEK293 HTT promoter firefly luciferase reporter (activity 0% = vehicle and -100% = no light), 24 h; series mostly up to 57.5 µM; activity change, negative = inhibition: at the top concentration
Outline: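 HEK293 cells carrying firefly luciferase reporters were seeded at 2,500 per well in Opti-MEM and cultured for 24 h. They were then treated with compounds at up to 57.5 uM final for 24 h at 37 degrees C before Dual-Glo luminescence readout.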

Activity change, negative = inhibition, inactive:
CC(=O)c1ccc(NC(=O)CSc2nc(-c3ccc(C)cc3)nc3c2c(=O)n(C)c(=O)n3C)cc1 0.958%
CCCOc1cccc(C(=O)N(Cc2sccc2C)C2CCS(=O)(=O)C2)c1 (configuration not stated) -19.7%
COc1ccc(CNC(=O)c2cnc(N(C)C)nc2)cc1 -16.5%
Cc1ccc2c(c1)C(=O)[C@]1(O)CCN(c3ccccc3)C1=N2 -6.19%
CC(C)OCCCNC(=O)CN1C(=O)c2cccnc2Sc2ccccc21 -4.09%
O=C(Cn1cc(SCc2c(F)cccc2Cl)c2ccccc21)N1CCCCC1 26.9%
Cn1c(=O)n(Cc2ccccc2)c(=O)c2c1nc1n2CCN1c1ccccc1 0.139%
CCN(CC)CCNC(=O)CN1N=C(c2ccc(OC)cc2)CCC1=O -8.91%
Cc1cccn2cc(-c3cccc(NC(=O)C(C)C)c3)nc12 17.4%
CCN(CC)CCNC(=O)C(=O)NCC(c1ccc2c(c1)OCO2)N1CCOCC1 (configuration not stated) -5.66%
O=C(CSc1cn(CC(=O)N2CCCCC2)c2ccccc12)NCc1ccccc1 -30.4%
CCCN1C(=O)c2[nH]nc(-c3ccccc3)c2C1c1cccc(O)c1 (configuration not stated) -7.97%
CCOc1ccc(-c2nnc(SCC(=O)NCc3ccccc3Cl)o2)cc1 -8.8%
Cc1ccc(NC(=O)c2oc3ccccc3c2NC(=O)Cc2ccccc2)cc1 -7%
CCOc1ccc(S(=O)(=O)N2CCN(c3cccc(C(F)(F)F)c3)CC2)cc1OCC -30.8%
COc1ccccc1NC(=O)CSC1=Nc2ccccc2C2=NC(Cc3ccccc3)C(=O)N12 (configuration not stated) -21%
COc1ccc2c(c1)CCc1sc(NC(=O)c3cccc(Br)c3)nc1-2 -27.3%
Cc1cc(C)c(S(=O)(=O)NCC(c2ccco2)N2CCOCC2)c(C)c1 (configuration not stated) -21.6%
CCc1nc2c(cnn2-c2ccc(C)cc2)c(=O)n1Cc1ccccc1 -24.5%
CCOC(=O)N1CCc2c(sc3c2c(=O)n(Cc2ccccc2)c(=O)n3Cc2cccc(C)c2)C1 -11%
Cc1ccc(-c2onc(C)c2C)cc1S(=O)(=O)NCc1ccc(N(C)C)cc1 -23.8%
COc1ccc(NC(=O)c2cc(C)nc3c2c(C)nn3-c2ccc(C)cc2)cc1OC -27.1%
COc1cccc(Cn2c(=O)n(-c3cccc(Cl)c3)c(=O)c3c4c(sc32)CN(C(C)=O)CC4)c1 -37.8%
C=CCC(CC=C)(CNC(=O)C(=O)Nc1ccc(C)cc1)c1ccccc1 34.8%
COc1ccccc1-c1nnc(C2CCN(C(=O)c3cccc(C)c3)CC2)o1 -15.8%
CCn1c(=O)cc(OCC(=O)NCc2ccccc2OC)c2ccccc21 -13.8%
CC1=C(C)C(=O)C(C(CCCCCC(=O)O)c2ccccc2)=C(C)C1=O (configuration not stated)
Cc1c2cnn(CC(=O)N3CCN(c4ccccc4)CC3)c(=O)c2c(C)n1Cc1ccccc1Cl 2.92%
CSc1ncc(Cl)c(C(=O)Nc2ccc(S(=O)(=O)Nc3nccc(C)n3)cc2)n1 -11.2%
CCCCN(C)CCCNC(=O)CN1N=C(c2ccc(OC)cc2)CCC1=O -4.88%
CC(=O)c1ccc(NC(=O)CCc2c(C)nc3c(c2C)c(=O)n(C)c(=O)n3C)cc1 8.55%
Cc1ccc(CCNC(=O)c2ccc3[nH]c(C)c(C)c3c2)cc1 -14.7%
O=C(NCc1ccccc1F)c1sc2ncccc2c1-n1cccc1 -22.6%
O=C(O)Cn1cnnn1 2.57%
COC(=O)CN1C(=O)C(C)(C)c2cc(S(=O)(=O)Nc3ccc(Br)cc3F)ccc21 -22.8%
Cc1[nH]c2ccc(Br)cc2c1CCNC(=O)c1cc2ccccc2oc1=O -2.75%
CCN(CC)c1ccc(NC(=O)CN2CCN(c3ccccc3F)CC2)cc1 -16.6%
CCOc1ccc(C2=NC(c3cccs3)=Nc3ccc(CC)cc3N2)cc1OCC 11%
CC(=O)N1CCCc2cc(S(=O)(=O)N3CCCC(C(=O)Nc4ccc(C)cc4C)C3)ccc21 (configuration not stated) -7.07%
CNCCc1ccccn1 1.98%
COc1ccc(-n2nc3cc(C)c(NC(=O)c4ccc(-c5ccc(Br)cc5)o4)cc3n2)cc1 35.5%
CC(=O)c1cccc(-n2c(=O)c3c4c(sc3n(Cc3cccc(C)c3)c2=O)CN(C(C)=O)CC4)c1 -10.3%
Cc1cccc(NC(=O)CN2C(=O)C(c3ccccc3)=NC23CCC(C)CC3)c1 (configuration not stated) -24.6%
Cc1cc(C)n(CCc2nc3c4ccccc4nc(N4CCN(c5cccc(C)c5C)CC4)n3n2)n1 -4.78%
COc1ccc(C(=O)Nc2ccc3c(c2)CCCN3S(=O)(=O)c2ccc(C)cc2)c(OC)c1 8.14%
CCc1ccc(S(=O)(=O)c2cn(C)c3cc(N4CCCC4)c(F)cc3c2=O)cc1 -8.72%
COC(=O)c1nnn(-c2ccc(Br)cc2)c1C(=O)OC -11.4%
Cc1cc(C)cc(C(=O)NCC(c2ccc(N(C)C)cc2)N2CCCC2)c1 (configuration not stated) -7.37%
CCOC(=O)CC(NC(=O)CCc1c(C)nc2ncnn2c1C)c1ccc(C)cc1 (configuration not stated) -3.25%
CCOc1ccc(C(=O)NCCc2csc(-c3cccc(F)c3)n2)cc1OCC -36.4%
COc1cccc(NC(=O)C2CCCN(S(=O)(=O)c3cccc4nonc34)C2)c1 (configuration not stated) -8.77%
Cc1cn2c(=O)c(S(=O)(=O)Nc3ccc(F)cc3F)c(C)nc2s1 -6.34%
O=C(NCc1ccc(Cl)cc1)c1ccc(Cn2c(=O)c3cccn3c3cccnc32)cc1 -5.98%
Oc1ccccc1Nc1nc2ccccc2n2nnnc12 27.3%
COc1ccc(S(=O)(=O)N2CCN(Cc3nc4ccc(C)cc4o3)CC2)cc1 -13.7%
Cc1cnc(Nc2ccc(OCCN3CCCC3)cc2)nc1Nc1cccc(S(=O)(=O)NC(C)(C)C)c1 -5.17%
O=C1CCc2cc(S(=O)(=O)NC(C(=O)Nc3cccc(F)c3)c3ccccc3)ccc2N1 (configuration not stated) 7.79%
COCCCNC(=O)c1ccc2c(c1)N(Cc1ccccc1F)C(=O)c1ccccc1S2=O (configuration not stated) -15.7%
COc1ccc(-c2nnc(SCC(=O)Nc3ccc(C)c(C)c3)s2)cc1 -16.4%
CCc1ccccc1NC(=O)CCCN1C(=O)CCn2nc(-c3cn(C)c4ccccc34)cc21 -5.74%
COc1cccc(NC(=O)c2oc3ccccc3c2NC(=O)C2CCCCC2)c1 -8.49%
COc1ccc(C(=O)/C=C/c2cn(CC(O)CN3CCc4ccccc43)c3ccccc23)cc1 (configuration not stated) -19.1%
COC(=O)c1cc(NC(=O)c2cc3sccc3n2Cc2ccc(Cl)cc2)cc(C(=O)OC)c1 -13.9%
O=C1NC(NS(=O)(=O)c2ccccc2)(C(F)(F)F)C(=O)N1c1ccc(F)cc1 (configuration not stated) -5.85%
Cc1cc(N2CCC(C(=O)N(CC(C)C)CC(C)C)CC2)n2nc(C)c(-c3ccc(Cl)cc3)c2n1 -6.5%
O=C(c1cnn(-c2ccc(F)cc2)c1-n1cccc1)N1CCN(c2ccc(Cl)cc2)CC1 -25.2%
COc1ccccc1NC(=O)Cn1c(=O)c(CNc2ccccc2)cc2cc(OC)c(OC)cc21 -1.56%
Fc1ccc(-n2ncc3c(Nc4cccc(Cl)c4)ncnc32)cc1 -4.37%
Cc1cc(C)cc(OCc2cc(=O)n3c(-c4ccccc4)csc3n2)c1 -1.36%
CSc1ncc(Cl)c(C(=O)N(Cc2ccc(C)cc2)C2CCS(=O)(=O)C2)n1 (configuration not stated) -5.76%
COc1ccccc1C1C=C(c2ccc(C(C)C)cc2)Nc2nnnn21 (configuration not stated) -26.5% [at 11.5 µM]
Cc1cccc(CNC(=O)c2ccc3c(c2)c(C)c(C)n3Cc2ccccc2)c1 -19.2%
COc1cc(OC)cc(-c2nc3nc(C)c(CCC(=O)Nc4ccc(C)cc4C)c(C)n3n2)c1 -20%
O=S(=O)(c1ccccc1)c1nnn2c1nc(NCc1ccc(Cl)cc1)c1sccc12 0.369%
O=C1CCc2cc(S(=O)(=O)NCc3ccccc3Cl)cc3c2N1CC3 -4.15%
CCN(CC)S(=O)(=O)c1ccc(C(=O)Nc2nc3ccc(Cl)cc3s2)cc1 -18.9%
O=C(CCn1ccc2cc(S(=O)(=O)N3CCCC3)ccc21)NCc1ccccc1F -20.5%
Cc1ccc(S(=O)(=O)c2nnn3c2nc(NCc2cccs2)c2sccc23)cc1 -11.1%
CCn1nc(C)c2c(-c3ccccc3)cc(=O)n(C(C)C(=O)NCc3ccccc3OC)c21 (configuration not stated) -29.1%
Cc1ccccc1C(=O)Nc1cccc(OCc2cc(=O)n3cccc(C)c3n2)c1 10.8%
Cc1ccc(C)c(NC(=O)Cn2cc(S(=O)(=O)Cc3cccc(Cl)c3)c3ccccc32)c1 -12.4%
CCc1ccc(NC(=O)CN2C(=O)CSc3ccc(S(=O)(=O)N(C)C)cc32)cc1 -8.94%
CCn1cc(C(=O)NCCc2ccc(OC)c(OC)c2)c(=O)c2cc(S(=O)(=O)N(C)C3CCCCC3)ccc21 -30%
CC(=O)O[C@]1(C(C)=O)CC[C@H]2[C@@H]3C=C(Cl)C4=CC(=O)CC[C@]4(C)[C@H]3CC[C@@]21C -6.99%
COc1ccc2cc3c(N)nn(C(=O)c4ccccc4Cl)c3nc2c1 -29.4%
CCc1ccc(NCc2cc3ccc(OC)cc3n(CC(=O)Nc3c(C)cc(C)cc3C)c2=O)cc1 -4.62%
CCCNC(=O)NS(=O)(=O)c1ccc(Cl)cc1 11.8%
CC(C)Oc1ccc(C(=O)N(Cc2ccc(N(C)C)cc2)C2CCS(=O)(=O)C2)cc1 (configuration not stated) -17.1%
Cn1nnc2c(N3CCN(c4ccc(F)cc4)CC3)ncnc21 -25.7%
Cc1ccccc1CNC(=O)CCS(=O)(=O)c1cc2c3c(c1)CCN3C(=O)CC2 -2.89%
Fc1ccc(-n2ncc3c(Nc4ccc5c(c4)OCCO5)ncnc32)cc1 2.33%
Cc1ccc(N2CCN(C(=O)c3cc4cc5ccc(C)cc5nc4s3)CC2C)cc1 (configuration not stated) 0.798%
Cc1ccc(Nc2sc(C(=O)c3ccccc3)c(N)c2S(=O)(=O)c2ccccc2)cc1Cl -27.2%
CCc1ccc(CNC(=O)Cn2nc(-c3ccc(C)cc3)ccc2=O)cc1 -9.04%
COc1ccccc1N1CCN(C(=O)CCS(=O)(=O)c2ccc3c(c2)oc(=O)n3C)CC1 -13.9%
COc1ccc(O)c(C2=Nc3ccccc3N=C(c3ccccc3)C2)c1 -22.6% [at 11.5 µM]
CCOC(=O)c1nc(Nc2ccc(C(=O)OC(C)C)cc2)c2ccccc2n1 -9.19%
